# Test results published in PubChem BioAssay AID1508624 (National Center for Advancing Translational Sciences (NCATS), 2021).
# Where “and” joins values, the source holds several entries; their conditions need not be identical. Identical values can stand only once. In all, about 48,000 compounds went through this assay and about 120 (0.25%) were called active. Inconclusive results (about 4%) are left out. Calls come from the whole dose curve; as a rule, active = well fitted activation curve with a large enough effect; inconclusive = small, poorly fitted or top-dose-only effect, or another doubt; inactive = no such curve, though single readings can be large or run the other way. Some of the results follow.
# Assay: Primary qHTS for Identification of Small Molecule Activators of Huntingtin-Antisense Promoter Activity; note: nearly all actives have a fitted effect of over 55% in size
# Details: HEK293 HTT-AS promoter firefly luciferase reporter, 24 h
# Excerpt: Assay Provider: Russell L. Margolis M.D.
# Department Neurology, Johns Hopkins University School of Medicine, Baltimore, MD
# Huntington's Disease (HD) is a neurodegenerative disorder caused by a CAG repeat expansion in exon 1 of huntingtin (HTT). While there are currently no disease-modifying treatments for HD, recent efforts have focused on development of nucleotide-based therapeutics to lower HTT expression. As an alternative to siRNA or oligonucleotide methods, we hypothesized that suppression of HTT expression might be accomplished by small molecules that either (1) directly decrease HTT expression by suppressing HTT promoter activity or (2) indirectly decrease HTT expression by increasing the promoter activity of HTT-AS, the gene antisense to HTT that appears to inhibit expression of HTT.
# We developed and employed a high throughput screen for modifiers of HTT and HTT-AS promoter activity using luminescent reporter HEK293 cells; of the 52,041 compounds tested, we identified 898 replicable hits. We used a rigorous stepwise approach to assess compound toxicity and the capacity of the compounds to specifically lower huntingtin protein in 5 different cell lines, including HEK293 cells, HD lymphoblastoid cells, mouse primary neurons, HD iPSCs differentiated into cortical-like neurons, and HD hESCs. We found no compounds which were able to lower huntingtin without lowering cell viability in all assays, though the potential efficacy of a few compounds at non-toxic doses could not be excluded.
# SEQUENCE No. (1, 2, 3, etc.); […] (e.g., Cells, Incubation, Reagent, etc.); VALUE and DESCRIPTION.
# 1; Reagent; 4 uL; 2,500 Hek293 luciferase reporter cells per wells
# 3; Compound; 23 nL; Control inhibitor / compound library
# 5; Reagent; 2.5 uL; Firefly Luc reagent; Dual-Glo Luciferase Reporter Assay System (Promega)
# 6; Time; 10 min; room temperature incubation
# 7; Detection; Luminescence; FLuc
# NOTES (numbers refer to sequence above)
# 1; High-throughput screening, measuring luminescence from a Hek293 luciferase reporter, was performed in 1,536 well white-walled tissue-culture treated plates. 2,500 cells were plated in 4 µL of Opti-MEM per well using a Multidrop Combi Reagent Dispenser (ThermoFisher).
# 2; Assay plates were cultured for 24 hours.
# 3; Control inhibitor (PTC124; final concentration of 50 uM) and compound library (at final concentrations of 460 nM - 57.5 uM) were added to the assay plate using the Kalypsis Pintool Robotic System equipped with 1536 pinheads.
# 4; Cells were then incubated for 24 hours at 37 degrees C prior to luminescence measurements.
# 5; In all cases, luminescence was measured using the Dual-Glo Luciferase Reporter Assay System (Promega) following the manufacturer's instructions.
# 6; Room temperature incubation.
# 7; Luminescence signal was obtained using the PerkinElmer ViewLux plate reader. Results were normalized to vehicle control (0% activity) and zero RLU (-100% activity).
# [1] = at 57.5 µM (top of the series) unless noted
structure (smiles),measurement,setting,value
Cc1c(C(c2ccc(Br)cc2)c2c(O)c3ccccc3oc2=O)c(=O)n(-c2ccccc2)n1C (stereo unspecified),"activity change, positive = activation",[1],inactive: -30.2%
COC1=CC(C)=C[C@@H](C)[C@@H](O)[C@@H](C)CC(C)=CC=C[C@H](OC)[C@H]([C@@H](C)[C@@H](O)[C@H](C)[C@@]2(O)C[C@@H](O)[C@H](C)[C@@H](C(C)C)O2)OC1=O,"activity change, positive = activation",[1],inactive: -27.8%
Cc1ccc(Cn2cccc(C(=O)Nc3cc(C)on3)c2=O)cc1,"activity change, positive = activation",[1],"inactive: -2.62% [at 57.5 µM, percent change from vehicle, -100% = no light]"
C[C@]12CC[C@H]3[C@@H](CC[C@@]45O[C@H]4C(O)=C(C#N)C[C@]35C)[C@H]1CC[C@H]2O,"activity change, positive = activation",[1],inactive: -10.2%
CC(C)(C)NCC(O)c1cc(Cl)c(N)c(Cl)c1 (stereo unspecified),"activity change, positive = activation",[1],inactive: 0.63%
Fc1ccc(C(OCCN2CCN(CCCc3ccccc3)CC2)c2ccc(F)cc2)cc1,"activity change, positive = activation",[1],inactive: -27.4% and inactive: -42.9%
COC(=O)C1=CCCN(C)C1,"activity change, positive = activation",[1],inactive: -10.1% and inactive: -5.85%
CN(C)c1ccc(NC(=O)c2sc3nc4c(cc3c2N)N2CCC4CC2)cc1,"activity change, positive = activation",[1],"inactive: -13.4% [at 57.5 µM, percent change from vehicle, -100% = no light]"
C=C(C)[C@H]1Cc2c(ccc3c2O[C@@H]2COc4cc(OC)c(OC)cc4[C@@H]2C3=O)O1,"activity change, positive = activation",[1],inactive: -71.5%
CC(N[C@H]1C[C@H]1c1ccccc1)c1ccc2c(c1)OCCO2 (stereo partly specified),"activity change, positive = activation",[1],inactive: 1.68%
COC(=O)[C@@H](N)CCCN=C(N)N[N+](=O)[O-],"activity change, positive = activation",[1],inactive: 1.44%
CCCC12CN3CC(C)(CN(C1)C3c1c(C)[nH]c(=O)[nH]c1=O)C2=O (stereo unspecified),"activity change, positive = activation",[1],"inactive: 0.884% [at 57.5 µM, percent change from vehicle, -100% = no light]"
O=C(N/N=C/c1ccc([N+](=O)[O-])o1)c1cc([N+](=O)[O-])cc([N+](=O)[O-])c1O,"activity change, positive = activation",[1],inactive: 3.1%
Cc1ccc(-c2nn3c(=O)cc(CN4CCN(C(=O)COc5ccc(C)c(C)c5)CC4)nc3s2)cc1,"activity change, positive = activation",[1],inactive: -9.59%
COc1ccc(Br)cc1C1SCC(=O)Nc2c1c(C)nn2-c1ccccc1C (stereo unspecified),"activity change, positive = activation",[1],"inactive: -23% [at 57.5 µM, percent change from vehicle, -100% = no light]"
CCCC1=Nc2cc(C(=O)NCCCN(CC)CC)ccc2Sc2ccccc21,"activity change, positive = activation",[1],inactive: -10.5%
C[C@H](CN1CCOCC1)C(C(=O)N1CCCC1)(c1ccccc1)c1ccccc1,"activity change, positive = activation",[1],inactive: -29% [at 116 µM]
CCN(CC)C(=O)c1ccc(NC(=O)c2ccc(-c3nn(C)c(=O)c4ccccc34)cc2)cc1,"activity change, positive = activation",[1],inactive: -10.1%
Cc1ccc(-c2nc(CN3C(=O)CN=C(c4ccccc4)c4ccccc43)c(C)o2)cc1,"activity change, positive = activation",[1],"inactive: -20.7% [at 57.5 µM, percent change from vehicle, -100% = no light]"
CCC1(CC)C(=O)C=CNC1=O,"activity change, positive = activation",[1],inactive: -5.47%
COc1ccc(Cc2nccc3cc(OC)c(OC)cc23)cc1OC,"activity change, positive = activation",at 57.5 µM (top of the series),inactive: -34.2%
same,"activity change, positive = activation","at 57.5 µM (top of the series), percent change from vehicle, -100% = no light",inactive: -16.8%
COc1cccc(NC(=O)c2cccn(Cc3ccccc3C)c2=O)c1,"activity change, positive = activation",[1],inactive: -35.8%
COc1ccccc1C1SCC(=O)Nc2c1c(C)nn2-c1cccc(C)c1 (stereo unspecified),"activity change, positive = activation",[1],"inactive: -16.4% [at 57.5 µM, percent change from vehicle, -100% = no light]"
Cc1ccc(Cn2cccc(C(=O)Nc3ccc4c(c3)OCCO4)c2=O)cc1,"activity change, positive = activation",[1],inactive: 11.2%
O=C1c2ccccc2C(=O)c2ccccc21,"activity change, positive = activation",[1],inactive: -3.31% [at 25.1 µM]
Cc1ccc2c(=O)n(-c3cccc(Cl)c3)c(=O)[nH]c2c1,"activity change, positive = activation",[1],inactive: -6.3%
Cc1ccc2nc(NC(=O)c3cccn(Cc4ccccc4F)c3=O)sc2c1,"activity change, positive = activation",[1],inactive: 3.89%
CC[N+](CC)(CC)CC,"activity change, positive = activation",[1],inactive: -3.3%
CCN(CC)C(=O)c1ccc(NC(=O)COc2ccc(-c3nn(C)c(=O)c4ccccc34)cc2)cc1,"activity change, positive = activation",[1],inactive: -40.7%
CCOCCOC(C)=O,"activity change, positive = activation",[1],"inactive: -9.53% [at 116 µM, percent change from vehicle, -100% = no light]"
COc1cc2[nH]c(=O)n(-c3ccc(C)cc3)c(=O)c2cc1OC,"activity change, positive = activation",[1],inactive: 0.849%
CCC(COC(=O)c1cc(OC)c(OC)c(OC)c1)(c1ccccc1)N(C)C (stereo unspecified),"activity change, positive = activation",[1],inactive: -7.19%
O=C(Nc1ccc(Br)cc1C(=O)c1ccccc1Cl)c1ccc(Br)cc1,"activity change, positive = activation",[1],"inactive: 7.93% [at 11.5 µM, percent change from vehicle, -100% = no light]"
CCN(C(C)=O)c1cccc(-c2ccnc3c(C#N)cnn23)c1,"activity change, positive = activation",[1],inactive: -7.98%
Cc1ccccc1-c1nc(CN2C(=O)CN=C(c3ccccc3)c3ccccc32)c(C)o1,"activity change, positive = activation",[1],inactive: -26.1%
